Experimental data taken from PubChem BioAssay AID743279 (National Center for Advancing Translational Sciences (NCATS), 2014).
About 17,000 (4.7%) of roughly 360,000 compounds were called active. This list was built around the results that the source calls inconclusive (neither active nor inactive); the mix of calls is not that of the screen. Cut-off read from the data, not from the text of the source: active = activity change below about -50%; inconclusive = mostly about -30% to -49%; inactive = weaker than that.

Assay: qHTS for Inhibitors of Inflammasome Signaling: IL-1-beta AlphaLISA Primary Screen
Settings: THP-1 LPS/ATP IL-1B secretion, 16 h; at 57.5 µM, active compounds read low
Method in brief: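 Secreted IL-1B measured by AlphaLISA bead assay after 16 h compound exposure of THP-1 cells; compounds (final up to 57.5 uM) added 1 h before LPS (250 ng/mL) and ATP (1.25 mM) stimulation; lower signal means less secretion.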
% is set by controls: 0 for no effect and ±100 for the full control effect.

Question: With Cc1ccc(CC#N)c(-c2c(CC#N)ccc(C)c2C)c1C as the compound, how does the activity change read?
Answer: inactive: 21.3%

Question: Which activity change does the source give for CCOCCCNC(=O)c1cc2c(=O)[nH]c3ccccc3c2s1 here?
Answer: inconclusive: -31.5%

Question: For CCn1cc([N+](=O)[O-])c(C(=O)N2N=C(c3ccc4ccccc4c3)CC2c2cc(Br)ccc2O)n1 (configuration not stated), which activity change is on record?
Answer: inconclusive: -38.6%

Question: For CNC(=O)c1ccc(-c2ccc(OC)cc2)s1, which activity change is on record?
Answer: inconclusive: -31.6%

Question: Which activity change does the source give for O=[N+]([O-])c1ccc2c(c1)C(=NO)c1cc(F)ccc1-2 here?
Answer: inconclusive: -32.9%

Question: For CCOC(=O)/C(C#N)=C1/C=C(C)NC(c2ccccc2O)=N1, which activity change is on record?
Answer: active: -63.9%

Question: For CCOC(=O)c1c(C)oc2c1c(C(c1ccccc1)N1CCOCC1)c(O)c1ccccc12 (configuration not stated), which activity change is on record?
Answer: active: -70.6%

Question: With COc1ccc(NC(=O)COC(=O)C2CCCN2C(=O)OC(C)(C)C)cc1Cl (configuration not stated) as the compound, how does the activity change read?
Answer: inconclusive: -47.4%

Question: Which activity change does the source give for O=C(O)c1ccccc1NC(=O)C(Cc1ccccc1)N1C(=O)c2ccccc2C1=O (configuration not stated) here?
Answer: inactive: 5.45%

Question: For Cc1cc(C)c(C#N)c(SCC(=O)N(C)C2CCCCC2)n1, which activity change is on record?
Answer: inconclusive: -40.8%

Question: For Cc1ccc(-c2csc(N(CCCN(C)C)C(=O)c3ccco3)n2)cc1, which activity change is on record?
Answer: active: -77%

Question: With Nc1c(-c2ccccc2)cnn1-c1cccc([N+](=O)[O-])c1 as the compound, how does the activity change read?
Answer: inconclusive: -38.6%

Question: For C=CC[C@@H](Cc1ccc(F)cc1)C(=O)OC[C@@H]1CCCN1C(=O)[C@@H](CC=C)CC(=O)N(CCO)Cc1ccccc1, which activity change is on record?
Answer: inconclusive: -43.1%

Question: Which activity change does the source give for CCCCN(CC)CCCNC(=O)C1c2ccccc2C(=O)N(C)C1c1cn(C)c2ccccc12 (configuration not stated) here?
Answer: inconclusive: -43.7%

Question: For CC1CN(S(=O)(=O)c2cccc(C(=O)Nc3ccc4c(c3)CCC4)c2)CC(C)O1 (configuration not stated), which activity change is on record?
Answer: inconclusive: -48.4%

Question: With COCc1nc(-c2ccc(-c3ccccc3)nc2OC)no1 as the compound, how does the activity change read?
Answer: inconclusive: -33.8%

Question: With CC(C)n1ncc2c(C(=O)N3CCN(Cc4ccc(Cl)s4)CC3)cc(C3CC3)nc21 as the compound, how does the activity change read?
Answer: inconclusive: -31.7%

Question: With O=C(Cn1ccc2ccccc2c1=O)NCCC(=O)Nc1ccc2c(c1)OCCO2 as the compound, how does the activity change read?
Answer: inconclusive: -30.4%

Question: For O=CC1=C(c2ccccc2)Oc2ccccc2O1, which activity change is on record?
Answer: active: -102%

Question: Which activity change does the source give for COCCN=c1scc(-c2ccccc2)n1/N=C/c1c[nH]c2ccccc12 here?
Answer: inconclusive: -38.9%

Question: Which activity change does the source give for C=CCC[C@H](CCCCC)OC(=O)/C=C/[C@H](O)[C@@H](O)C[C@@H](O)CC=C here?
Answer: inconclusive: -32%

Question: Which activity change does the source give for CC(=O)C(Sc1nc(NC(C)(C)C)nc(N(C)C)n1)C(C)=O here?
Answer: inconclusive: -42%

Question: With O=C1N[C@H](Cc2ccccc2)COC(=O)[C@@H](Cc2ccc(F)cc2)C/C=C\C[C@H]1CC(=O)N(CCO)Cc1ccccc1 as the compound, how does the activity change read?
Answer: active: -59.1%

Question: With Cc1ccccc1OCCCSc1nc2ccccc2[nH]1 as the compound, how does the activity change read?
Answer: active: -81.3%

Question: For Cc1ccc(C2CC2/C(=N/O)c2ccc(F)cc2)cc1 (configuration not stated), which activity change is on record?
Answer: inconclusive: -41.1%

Question: Which activity change does the source give for COc1ccccc1-n1nnnc1SCC(=O)NCC1CCCO1 (configuration not stated) here?
Answer: inactive: 4.83%

Question: With CCc1cccc(NC(=O)NC(=O)Cn2nnc(C(=O)OC)c2C(=O)OC)c1 as the compound, how does the activity change read?
Answer: inconclusive: -49.1%

Question: With COc1cc(C2C(C#N)=C(N)Oc3n[nH]c(C)c32)ccc1OC(=O)c1ccccc1 (configuration not stated) as the compound, how does the activity change read?
Answer: inactive: -11.6%

Question: With C=CCn1c(=N)n(CC(O)COc2ccccc2OC)c2ccccc21 (configuration not stated) as the compound, how does the activity change read?
Answer: inconclusive: -42.3%

Question: With COc1cc(S(=O)(=O)N2CCC(N3CCCCC3)CC2)ccc1-n1cnnn1 as the compound, how does the activity change read?
Answer: inactive: -14.4%

Question: For FC(F)(F)c1ccnc(NCc2ccc(Cl)cc2)n1, which activity change is on record?
Answer: active: -55.3%

Question: With CCc1nc2c(OCc3cc(Cl)cc(Cl)c3)cccn2c1N(C)C(=O)c1ccc(OC)cc1 as the compound, how does the activity change read?
Answer: inconclusive: -46.8%

Question: For CC(C)C[C@H](CO)Nc1nc(N(C)c2cccc(Cl)c2)c2ncn(C(C)C)c2n1, which activity change is on record?
Answer: inconclusive: -47.7%

Question: For Cc1c(CCC(=O)NCCCn2ccnc2)c(=O)oc2cc3occ(C(C)(C)C)c3cc12, which activity change is on record?
Answer: inconclusive: -42.4%

Question: With COc1ccc2sc(N(CCN(C)C)C(=O)/C=C/c3cccs3)nc2c1 as the compound, how does the activity change read?
Answer: active: -95.2%

Question: For Cc1ccc2oc(=O)c3cc(C(=O)NCCCN4CC(C)CC(C)C4)sc3c2c1 (configuration not stated), which activity change is on record?
Answer: active: -82.9%

Question: For CC1CCCN(c2ccc(C(=O)NCc3ccccc3)cn2)C1 (configuration not stated), which activity change is on record?
Answer: inconclusive: -42.5%

Question: For COc1ccc(C2OC(CCc3ccccc3)CC3=C2C(=O)OC(C)(C)O3)cc1 (configuration not stated), which activity change is on record?
Answer: inconclusive: -34.6%

Question: For Cc1cccc(C)c1NC(=O)c1ccc(-n2cnnn2)cc1, which activity change is on record?
Answer: inconclusive: -30.6%

Question: With Cn1ccnc1SCC(=O)Nc1nc2ccccc2s1 as the compound, how does the activity change read?
Answer: inconclusive: -30.6%

Question: For O=C(CC1SC(=Nc2ccccc2F)N(CCN2CCOCC2)C1=O)Nc1ccc(F)cc1F (configuration not stated), which activity change is on record?
Answer: inconclusive: -42%

Question: Which activity change does the source give for c1ccc(Nc2c(-c3ccco3)nc3ccccn23)cc1 here?
Answer: inconclusive: -36.3%

Question: Which activity change does the source give for COCCn1c(SCC(=O)N2CCCC2)nc2c(c1=O)SCC2 here?
Answer: inactive: 14.3%

Question: For CCCOc1ccc(-c2nc(N3CCN(CC)CC3)c3ccccc3n2)cc1, which activity change is on record?
Answer: active: -56.7%

Question: For CC(=O)Nc1ccccc1-c1ccccc1[N+](=O)[O-], which activity change is on record?
Answer: inactive: -2.73%

Question: For Cc1csc2c(N3CCN(C(=S)Nc4ccc(C(F)(F)F)cc4)CC3)ncnc12, which activity change is on record?
Answer: inactive: 12%

Question: With O=C(Nc1ccnn1C1CCN(CCCC2CCCC2)CC1)c1ccccc1Cl as the compound, how does the activity change read?
Answer: inconclusive: -37.3%

Question: For CCCS(=O)(=O)N1CCCC(C(=O)c2ccccc2OC)C1 (configuration not stated), which activity change is on record?
Answer: inactive: 13.2%

Question: With Cc1ccc(-c2nc(NCCCO)c3ccccc3n2)cc1 as the compound, how does the activity change read?
Answer: inconclusive: -40.1%

Question: With O=C1[C@H](Oc2ccccc2)[C@@H](c2ccccc2)N1c1ccncc1 as the compound, how does the activity change read?
Answer: active: -104%

Question: Which activity change does the source give for Cc1ccc(C(=O)N2NC(c3ccc(F)cc3)C3C(=O)N(c4ccc(C)c(C)c4)C(=O)C32)cc1 (configuration not stated) here?
Answer: inactive: 2.52%

Question: Which activity change does the source give for COC(=O)CNC(=O)COC(=O)/C=C/c1ccc2ccccc2n1 here?
Answer: active: -103%

Question: For O=C(NCc1nnnn1-c1ccc(Cl)cc1)c1ccc2c(c1)OCO2, which activity change is on record?
Answer: inconclusive: -34.3%

Question: Which activity change does the source give for COc1cc(/C=C/c2nnc3c4ccccc4ncn23)cc(OC)c1OC here?
Answer: inconclusive: -43%

Question: Which activity change does the source give for O=C(O)c1cc(N/N=C/c2ccc(N3CCOCC3)s2)ccc1Cl here?
Answer: inconclusive: -48.9%

Question: For COc1ccc(CC(=O)Nc2nc(-c3ccc(F)c(F)c3)cs2)cc1OC, which activity change is on record?
Answer: active: -67.5%

Question: With C=CCn1c(N)cc(=O)nc1SCC(=O)Nc1ccccc1 as the compound, how does the activity change read?
Answer: inconclusive: -30.1%

Question: For Cc1ccc(C)c(OCCCCN2CCCCC2)c1, which activity change is on record?
Answer: inconclusive: -44.4%

Question: Which activity change does the source give for COc1ccc(C)cc1S(=O)(=O)N(CC(=O)NCc1ccc(Cl)cc1)Cc1ccccc1 here?
Answer: active: -61.3%

Question: With Cn1nc(C(=O)Nc2ccccc2)c2c1-c1ccccc1S(=O)(=O)C2 as the compound, how does the activity change read?
Answer: inconclusive: -38.5%

Question: With CC(Oc1ccc(Cl)cc1Cl)C(=O)Nc1ccc(O)cc1 (configuration not stated) as the compound, how does the activity change read?
Answer: active: -66.5%

Question: Which activity change does the source give for Cc1c(C(=O)NCc2cccc([N+](=O)[O-])c2)sc(=O)n1Cc1ccc(F)cc1 here?
Answer: inconclusive: -43.4%

Question: Which activity change does the source give for COc1ccc(Cl)c(NC(=O)C/C(C)=N/NC(=O)CCc2ccccc2)c1 here?
Answer: inconclusive: -42.6%

Question: With COc1ccccc1N1CCN(CCC(=O)Nc2cccc(F)c2)CC1 as the compound, how does the activity change read?
Answer: inactive: 1.32%

Question: With c1ccc(CSc2ccc(-c3cccs3)nn2)nc1 as the compound, how does the activity change read?
Answer: inconclusive: -40.2%

Question: Which activity change does the source give for CCCCC(=O)NC(=S)Nc1cccc(NC(=O)c2ccccc2)c1 here?
Answer: inconclusive: -41.6%

Question: Which activity change does the source give for O=C(COC(=O)COc1ccccc1F)NC1CC1 here?
Answer: inactive: 7.99%

Question: Which activity change does the source give for Cc1onc(-c2ccccc2)c1C(=O)N/N=C/c1ccc(Br)cc1 here?
Answer: inconclusive: -41.7%

Question: With Cc1c([N+](=O)[O-])c([N+](=O)[O-])nn1CC(=O)NCCc1ccccc1 as the compound, how does the activity change read?
Answer: active: -89.9%

Question: With COc1ccccc1OCc1nc(-c2ccc([N+](=O)[O-])cc2)no1 as the compound, how does the activity change read?
Answer: inconclusive: -35.6%

Question: Which activity change does the source give for COc1ccccc1-c1nnc(NC(=O)c2ccc3c(c2)OCO3)s1 here?
Answer: inactive: 0%

Question: For COc1ccccc1CN1CCC(CNS(=O)(=O)c2cc(-c3cc(C)no3)ccc2C)CC1, which activity change is on record?
Answer: inconclusive: -48.8%

Question: For CSCCC1NC2(C(=O)Nc3ccc(Cl)cc32)[C@@H]2C(=O)N(C3CCCC3)C(=O)[C@H]12 (some centres not stated), which activity change is on record?
Answer: inconclusive: -34.6%

Question: Which activity change does the source give for CCOC(=O)c1c(C)[nH]c(C)c1C(=O)COC(=O)c1ccc(S(=O)(=O)N(CC)CC)cc1 here?
Answer: inactive: 6.56%

Question: Which activity change does the source give for CCOc1ccc(/C=N/NC(=O)C(=O)N2CCCCCC2)c2ccccc12 here?
Answer: inconclusive: -32.9%

Question: For CC1(C)CC(=O)C(C=NCCN2CCN(C(=O)C34CC5CC(CC(C5)C3)C4)CC2)=C(O)C1, which activity change is on record?
Answer: inactive: 51%

Question: Which activity change does the source give for CCOC(=O)[C@H]1[C@H]2COc3ccc(Br)cc3[C@H]2N2C(=O)CN(CCc3c[nH]c4ccccc34)C(=O)[C@@]12C here?
Answer: inactive: -17.8%

Question: Which activity change does the source give for Cn1c(CNC(=O)CCNC(=O)c2ccccc2F)cc(=O)n(C)c1=O here?
Answer: inactive: 24.2%

Question: Which activity change does the source give for CCc1ccc(C(=O)COC(=O)c2ccccc2OC)cc1 here?
Answer: inactive: -1.05%

Question: Which activity change does the source give for CCN(CC)C(=O)C(Sc1ccccc1)c1ccccc1 (configuration not stated) here?
Answer: inconclusive: -35.4%

Question: For O=C(O)/C=C\C(=O)Nc1ccccc1C(=O)N1CCC(O)(c2ccc(Cl)cc2)CC1, which activity change is on record?
Answer: inactive: -7.88%

Question: Which activity change does the source give for O=S(=O)(Nc1nc2ccccc2nc1-[n+]1cccc(N=C([O-])c2ccc(Cl)cc2)c1)c1ccccc1 here?
Answer: active: -72.9%

Question: For CN1C2CCC1CC(OC(c1ccccc1)c1ccccc1)C2 (configuration not stated), which activity change is on record?
Answer: inconclusive: -47.4%

Question: Which activity change does the source give for CC(=O)c1cccc(-c2ccnc3c2CC(C(=O)NCc2ccco2)O3)c1 (configuration not stated) here?
Answer: inactive: 52.6%

Question: For Cc1cc(C)c2nc(Nc3nc(-c4ccccc4)cc(=O)[nH]3)nc(C)c2c1, which activity change is on record?
Answer: inconclusive: -44.3%

Question: Which activity change does the source give for O=C(Nc1ccc2ccccc2n1)c1ccc(Cl)cc1 here?
Answer: inactive: 40.4%

Question: For COc1cccc(C(=O)Nc2nc(-c3ccc(S(=O)(=O)N4CCOCC4)cc3)cs2)c1, which activity change is on record?
Answer: inconclusive: -46%
